Paper PMC11876325
Read-outs that look alike come from different tables or passages of the source. These are yes or no findings as the source states them, for the method shown. Some binding calls cover weakened binding; strength is not graded here.

Protein sequences, listed by entry. Tags and fused reporters are not part of them.
UniProt P53091: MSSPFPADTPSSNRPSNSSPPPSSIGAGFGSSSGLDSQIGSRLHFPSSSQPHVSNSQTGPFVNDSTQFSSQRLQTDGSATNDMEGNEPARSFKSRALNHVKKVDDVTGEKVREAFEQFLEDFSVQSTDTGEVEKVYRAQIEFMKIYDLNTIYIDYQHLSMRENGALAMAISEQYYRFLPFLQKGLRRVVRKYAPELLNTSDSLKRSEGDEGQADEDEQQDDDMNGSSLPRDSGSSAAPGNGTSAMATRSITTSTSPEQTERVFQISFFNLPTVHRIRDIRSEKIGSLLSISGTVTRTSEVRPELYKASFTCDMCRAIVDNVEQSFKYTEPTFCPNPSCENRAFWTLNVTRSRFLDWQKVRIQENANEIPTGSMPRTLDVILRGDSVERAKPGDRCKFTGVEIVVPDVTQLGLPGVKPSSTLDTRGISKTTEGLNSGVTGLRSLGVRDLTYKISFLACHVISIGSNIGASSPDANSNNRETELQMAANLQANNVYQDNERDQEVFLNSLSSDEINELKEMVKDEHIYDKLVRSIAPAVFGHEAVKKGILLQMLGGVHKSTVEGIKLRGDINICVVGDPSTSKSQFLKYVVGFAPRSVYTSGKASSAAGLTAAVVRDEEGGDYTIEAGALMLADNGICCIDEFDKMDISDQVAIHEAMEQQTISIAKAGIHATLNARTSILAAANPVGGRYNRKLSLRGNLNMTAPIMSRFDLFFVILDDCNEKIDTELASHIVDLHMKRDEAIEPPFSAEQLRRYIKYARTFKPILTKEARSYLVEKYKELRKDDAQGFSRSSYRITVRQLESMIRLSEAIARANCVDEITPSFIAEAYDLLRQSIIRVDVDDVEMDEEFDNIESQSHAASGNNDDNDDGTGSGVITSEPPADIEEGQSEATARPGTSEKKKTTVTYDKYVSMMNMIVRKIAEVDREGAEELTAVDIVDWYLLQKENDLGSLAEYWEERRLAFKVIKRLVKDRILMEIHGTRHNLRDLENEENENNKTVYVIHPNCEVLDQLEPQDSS
UniProt P24279: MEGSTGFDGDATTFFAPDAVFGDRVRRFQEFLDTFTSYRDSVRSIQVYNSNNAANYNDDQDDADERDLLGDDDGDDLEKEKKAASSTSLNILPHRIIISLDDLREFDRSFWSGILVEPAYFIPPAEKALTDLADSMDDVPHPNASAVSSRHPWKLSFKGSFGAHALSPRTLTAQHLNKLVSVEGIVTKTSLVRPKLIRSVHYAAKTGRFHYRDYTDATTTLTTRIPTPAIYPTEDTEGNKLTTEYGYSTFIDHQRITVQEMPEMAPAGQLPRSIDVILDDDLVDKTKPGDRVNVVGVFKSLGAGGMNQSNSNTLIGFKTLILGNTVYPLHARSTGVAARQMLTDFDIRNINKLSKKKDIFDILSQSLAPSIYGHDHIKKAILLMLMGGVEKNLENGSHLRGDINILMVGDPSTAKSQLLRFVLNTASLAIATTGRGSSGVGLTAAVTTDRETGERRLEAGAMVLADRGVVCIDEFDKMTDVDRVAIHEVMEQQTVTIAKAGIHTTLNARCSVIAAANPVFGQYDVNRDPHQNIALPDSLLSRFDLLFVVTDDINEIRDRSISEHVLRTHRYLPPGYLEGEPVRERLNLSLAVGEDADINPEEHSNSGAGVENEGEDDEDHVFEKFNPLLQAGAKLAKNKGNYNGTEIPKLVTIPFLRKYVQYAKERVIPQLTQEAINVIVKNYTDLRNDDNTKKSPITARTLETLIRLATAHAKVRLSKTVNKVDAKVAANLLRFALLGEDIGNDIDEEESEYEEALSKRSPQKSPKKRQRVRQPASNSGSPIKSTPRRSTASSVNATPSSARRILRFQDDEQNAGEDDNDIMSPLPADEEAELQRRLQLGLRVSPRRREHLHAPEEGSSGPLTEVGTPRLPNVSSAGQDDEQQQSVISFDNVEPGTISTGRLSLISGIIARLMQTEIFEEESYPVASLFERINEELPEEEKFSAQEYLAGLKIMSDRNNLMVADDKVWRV

T1: Psy3 (pGBD Psy3) (S. cerevisiae) (UniProt Q12318)
T1 sequence: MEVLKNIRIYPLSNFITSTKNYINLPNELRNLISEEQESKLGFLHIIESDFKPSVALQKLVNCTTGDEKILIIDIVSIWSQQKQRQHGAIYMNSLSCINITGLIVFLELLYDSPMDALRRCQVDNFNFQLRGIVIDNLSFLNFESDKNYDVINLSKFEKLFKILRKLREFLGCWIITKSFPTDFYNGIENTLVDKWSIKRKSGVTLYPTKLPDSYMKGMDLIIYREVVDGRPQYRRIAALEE

T2: Rad55 (pGBD Rad55) (S. cerevisiae) (UniProt P38953)
T2 sequence: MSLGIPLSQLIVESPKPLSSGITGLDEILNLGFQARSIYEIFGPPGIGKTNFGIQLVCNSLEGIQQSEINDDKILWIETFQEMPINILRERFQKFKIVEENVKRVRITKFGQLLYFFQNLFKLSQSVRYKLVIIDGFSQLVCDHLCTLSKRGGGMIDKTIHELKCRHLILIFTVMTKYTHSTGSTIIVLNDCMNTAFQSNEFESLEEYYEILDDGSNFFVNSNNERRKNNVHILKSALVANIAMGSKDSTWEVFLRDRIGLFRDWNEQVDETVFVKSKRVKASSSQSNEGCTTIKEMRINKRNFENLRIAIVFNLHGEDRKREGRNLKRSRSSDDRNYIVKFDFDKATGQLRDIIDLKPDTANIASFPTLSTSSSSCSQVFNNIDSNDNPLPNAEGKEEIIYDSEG

T3: Rad57 (pGBD Rad57) (S. cerevisiae) (UniProt P25301)
T3 sequence: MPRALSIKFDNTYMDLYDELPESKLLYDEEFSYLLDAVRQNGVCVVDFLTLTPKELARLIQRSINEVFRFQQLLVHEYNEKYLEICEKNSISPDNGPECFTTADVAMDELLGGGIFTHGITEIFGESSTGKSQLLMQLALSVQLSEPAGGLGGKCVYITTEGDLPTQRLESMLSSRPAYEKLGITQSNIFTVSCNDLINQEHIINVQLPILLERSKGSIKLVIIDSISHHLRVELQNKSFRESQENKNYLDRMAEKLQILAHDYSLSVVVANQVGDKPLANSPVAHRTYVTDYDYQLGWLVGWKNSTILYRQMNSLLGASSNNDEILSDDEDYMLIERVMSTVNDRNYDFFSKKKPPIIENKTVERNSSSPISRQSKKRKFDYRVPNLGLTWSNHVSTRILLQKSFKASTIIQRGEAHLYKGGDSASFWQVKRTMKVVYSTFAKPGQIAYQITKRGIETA

T4: Mcm10 (pGBD Mcm10) (S. cerevisiae) (UniProt P32354)
T4 sequence: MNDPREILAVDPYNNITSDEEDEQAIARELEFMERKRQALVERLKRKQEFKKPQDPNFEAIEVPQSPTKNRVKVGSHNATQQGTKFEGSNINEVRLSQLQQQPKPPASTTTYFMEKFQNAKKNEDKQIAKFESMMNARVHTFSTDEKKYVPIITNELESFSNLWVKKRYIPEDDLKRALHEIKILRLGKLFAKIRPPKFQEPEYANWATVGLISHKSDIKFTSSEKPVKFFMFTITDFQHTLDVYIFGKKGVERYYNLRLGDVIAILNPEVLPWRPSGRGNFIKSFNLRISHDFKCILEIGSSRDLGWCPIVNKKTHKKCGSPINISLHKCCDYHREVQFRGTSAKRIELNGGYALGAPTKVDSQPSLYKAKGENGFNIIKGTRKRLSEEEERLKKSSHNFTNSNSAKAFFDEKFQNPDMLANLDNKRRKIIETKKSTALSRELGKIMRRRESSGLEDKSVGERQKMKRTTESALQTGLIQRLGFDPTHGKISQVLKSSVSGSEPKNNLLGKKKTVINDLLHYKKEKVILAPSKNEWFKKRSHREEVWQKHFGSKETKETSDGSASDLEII

T5: Psy3-F15A (pGBD psy3-F15A) (S. cerevisiae) (UniProt Q12318)
T5 sequence: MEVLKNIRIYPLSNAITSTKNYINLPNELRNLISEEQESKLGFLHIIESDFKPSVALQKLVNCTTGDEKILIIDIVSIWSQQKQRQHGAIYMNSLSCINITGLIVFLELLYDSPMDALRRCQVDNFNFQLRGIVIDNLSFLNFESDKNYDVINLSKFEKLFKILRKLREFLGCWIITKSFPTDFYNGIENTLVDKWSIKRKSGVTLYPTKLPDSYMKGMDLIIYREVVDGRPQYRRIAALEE

T6: Psy3-L12A (pGBD psy3-L12A) (S. cerevisiae) (UniProt Q12318)
T6 sequence: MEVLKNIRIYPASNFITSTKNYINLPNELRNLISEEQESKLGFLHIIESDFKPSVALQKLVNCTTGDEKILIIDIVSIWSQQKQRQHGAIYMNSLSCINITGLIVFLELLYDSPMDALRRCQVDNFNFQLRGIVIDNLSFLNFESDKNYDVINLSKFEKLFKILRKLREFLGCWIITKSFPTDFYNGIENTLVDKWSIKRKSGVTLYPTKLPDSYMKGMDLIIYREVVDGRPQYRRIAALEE

T7: Psy3-S18A (pGBD psy3-S18A) (S. cerevisiae) (UniProt Q12318)
T7 sequence: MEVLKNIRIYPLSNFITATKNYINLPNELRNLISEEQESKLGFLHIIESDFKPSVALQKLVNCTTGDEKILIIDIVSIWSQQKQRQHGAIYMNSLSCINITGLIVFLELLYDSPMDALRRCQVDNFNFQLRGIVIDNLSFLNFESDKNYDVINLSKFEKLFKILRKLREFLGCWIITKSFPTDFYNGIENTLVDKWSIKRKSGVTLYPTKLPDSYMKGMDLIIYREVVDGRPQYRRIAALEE

T8: Psy3-T17A (pGBD psy3-T17A) (S. cerevisiae) (UniProt Q12318)
T8 sequence: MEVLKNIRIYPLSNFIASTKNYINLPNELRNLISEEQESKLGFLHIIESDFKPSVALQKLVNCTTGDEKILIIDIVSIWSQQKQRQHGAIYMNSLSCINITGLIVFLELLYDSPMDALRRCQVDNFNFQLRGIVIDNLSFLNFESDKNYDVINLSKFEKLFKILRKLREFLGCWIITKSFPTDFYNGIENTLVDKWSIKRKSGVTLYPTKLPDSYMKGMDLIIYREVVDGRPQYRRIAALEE

T9: Psy3-Y10A (pGBD psy3-Y10A) (S. cerevisiae) (UniProt Q12318)
T9 sequence: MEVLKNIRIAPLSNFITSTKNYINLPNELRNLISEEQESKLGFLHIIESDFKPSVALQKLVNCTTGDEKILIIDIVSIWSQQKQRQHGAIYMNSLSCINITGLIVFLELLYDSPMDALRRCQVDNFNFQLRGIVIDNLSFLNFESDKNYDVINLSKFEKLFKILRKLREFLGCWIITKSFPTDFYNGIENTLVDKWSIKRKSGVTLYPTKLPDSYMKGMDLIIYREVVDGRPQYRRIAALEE

T10: Csm2 (pGBD Csm2) (S. cerevisiae) (UniProt P40465)
T10 sequence: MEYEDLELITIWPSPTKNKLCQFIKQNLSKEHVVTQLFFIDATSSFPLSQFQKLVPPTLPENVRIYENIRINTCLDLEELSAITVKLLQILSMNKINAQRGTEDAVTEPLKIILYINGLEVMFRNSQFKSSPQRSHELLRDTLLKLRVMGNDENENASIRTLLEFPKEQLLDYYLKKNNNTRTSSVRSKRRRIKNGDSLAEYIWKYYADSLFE

T11: Shu2 (pGBD Shu2) (S. cerevisiae) (UniProt P38957)
T11 sequence: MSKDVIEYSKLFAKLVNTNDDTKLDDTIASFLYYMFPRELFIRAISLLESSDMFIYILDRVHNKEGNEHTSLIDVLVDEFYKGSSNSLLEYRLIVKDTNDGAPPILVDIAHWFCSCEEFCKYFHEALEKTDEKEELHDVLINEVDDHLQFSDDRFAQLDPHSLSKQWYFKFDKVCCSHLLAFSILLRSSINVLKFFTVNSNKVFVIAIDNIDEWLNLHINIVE


What was measured:
Experiment in all cases: two-hybrid; GAL4 DNA-binding domain (pGBD) and GAL4 activation domain (pGAD) fusions co-transformed into PJ69-4α (also its rad51∆, rad55∆, csm2∆, shu1∆ and shu2∆ derivatives); growth on SC-L-W-H, 2-3 days, 30 °C
[1] = molecular target: T1, Psy3 (pGBD Psy3) (S. cerevisiae)
[2] = molecular target: T2, Rad55 (pGBD Rad55) (S. cerevisiae)
[3] = molecular target: T3, Rad57 (pGBD Rad57) (S. cerevisiae)
[4] = molecular target: T4, Mcm10 (pGBD Mcm10) (S. cerevisiae)
[5] = molecular target: T1, Psy3 (pGBD Psy3) (S. cerevisiae); remark: listed apart in the source
[6] = molecular target: T5, Psy3-F15A (pGBD psy3-F15A) (S. cerevisiae)
[7] = molecular target: T6, Psy3-L12A (pGBD psy3-L12A) (S. cerevisiae)
[8] = molecular target: T7, Psy3-S18A (pGBD psy3-S18A) (S. cerevisiae)
[9] = molecular target: T8, Psy3-T17A (pGBD psy3-T17A) (S. cerevisiae)
[10] = molecular target: T9, Psy3-Y10A (pGBD psy3-Y10A) (S. cerevisiae)
[11] = molecular target: T10, Csm2 (pGBD Csm2) (S. cerevisiae)
[12] = molecular target: T11, Shu2 (pGBD Shu2) (S. cerevisiae)

binding [1]	binding [2]	binding [3]	binding [5]	Molecule	other results
binds	no binding	no binding		Mcm6 (pGAD Mcm6) (from UniProt P53091 1-1017)	
binds	no binding	no binding		Mcm3 (pGAD Mcm3) (from UniProt P24279 1-971)	
			binds	Shu1 (pGAD Shu1) (protein, UniProt P38751 1-150) MQFEERLQQLVESDWSLDQSSPNVLVIVLGDTARKYVELGGLKEHVTTNTVAGHVASRERVSVVFLGRVKYLYMYLTRMQAQANGPQYSNVLVYGLWDLTATQDGPQQLRLLSLVLRQCLSLPSKVEFYPEPPSSSVPARLLRFWDHIIR	binding [4]: no binding; binding [6]: binds; binding [7]: binds; binding [8]: binds; binding [9]: binds; binding [10]: binds
			binds	Cdc45 (pGAD CDC45) (protein, UniProt Q08032 1-650) MYYGISQFSEAYNKILRNSSSHSSCQLVIFVSCLNIDALCATKMLSLLFKKQLVQSQIVPIFGYSELRRHYSQLDDNINSLLLVGFGGVIDLEAFLEIDPQEYVIDTDEKSGEQSFRRDIYVLDAHRPWNLDNIFGSQIIQCFDDGTVDDTLGEQKEAYYKLLELDEESGDDELSGDENDNNGGDDEATDADEVTDEDEEDEDETISNKRGNSSIGPNDLSKRKQRKKQIHEYEGVLEEYYSQGTTVVNSISAQIYSLLSAIGETNLSNLWLNILGTTSLDIAYAQVYNRLYPLLQDEVKRLTPSSRNSVKTPDTLTLNIQPDYYLFLLRHSSLYDSFYYSNYVNAKLSLWNENGKKRLHKMFARMGIPLSTAQETWLYMDHSIKRELGIIFDKNLDRYGLQDIIRDGFVRTLGYRGSISASEFVEALTALLEVGNSTDKDSVKINNDNNDDTDGEEEEDNSAQKLTNLRKRWVSNFWLSWDALDDRKVELLNRGIQLAQDLQRAIFNTGVAILEKKLIKHLRIYRLCVLQDGPDLDLYRNPLTLLRLGNWLIECCAESEDKQLLPMVLASIDENTDTYLVAGLTPRYPRGLDTIHTKKPILNNFSMAFQQITAETDAKVRIDNFESSIIEIRREDLSPFLEKLTLSGLL	binding [11]: binds; binding [12]: binds
